Source: the supplement of paper PMC11417369
± gives the standard deviation of the averaged measurements. The list shows a part of the results.

test system: PfAP2-LT AP2 domain (GST-tagged); test: gcPBM binding intensity (ln(normalized median fluorescence intensity)); higher = stronger DNA binding
Procedure, shortened: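 GST-fused DNA-binding domains of P. falciparum, expressed in E. coli, were applied at about 25 μg on average for 1 h to an Agilent 4 × 180k array of primer-extended double-stranded 36-bp intergenic genomic probes and negative controls. Binding intensity is the highest Masliner-normalised natural-log median intensity across replicate spots of either probe orientation, measured with Alexa488 anti-GST antibody and a 488 nm scan.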

Sequence	gcPBM binding intensity (ln)
ATCGAAGGGGTACAAAATAAAAATAATTCTTTCAAA [TGCATGCA_negctrl_site373]	8.55 ± 0.62
AAGTGTTATGAAATATGTACACATATATTATATATA [XGTACX_site6022]	8.8 ± 0.46
TATAAATAAATATGGAGTACCAAAAAAATTATAAAA [XGTACX_site7581]	8.6 ± 0.48
ATATAACATGGACACACACACATATATATATATTAT [CACACA_site6135]	9.88 ± 0.32
ATACAAATTAAGCCTCAAGTTCTTTTTTTTAACATA [XGTACX_negctrl_site580]	8.48 ± 0.29
AAAAAAAAGAATTATTGTACAAAAGAACAATAAATA [XGTACX_site1368]	8.73 ± 0.57
GTGAAATTATATTTTTGTACATATATTATATATTAT [XGTACX_site3387]	8.9 ± 0.49
GGTGCACCCATATACACACACAAATACAATGATAAA [CACACA_site1132]	9.53 ± 0.52
ATTTAAAATGGTTATACACACATAAAAGGGGAAATG [CACACA_site2649]	9.14 ± 0.4
ATATATATATATATATGTACATACCCAATTGTGTAA [XGTACX_site6352]	9.87 ± 0.24
TACAGACATACATACACACATACATATATATATATA [CACACA_site1940]	9.82 ± 0.34
TTTTTATTAAATAAAGCACACACAACAACTTTTCAC [CACACA_site9372]	9.09 ± 0.31
AAATATAAAAAAAAAAGTACTTTGTTACTTTTCTAT [XGTACX_site6034]	8.33 ± 0.42
AAAATAAATATAACCACACACGAAAGAGAGAGAAAA [CACACA_site3272]	9.35 ± 0.47
TAACCATAAGAAGATTGTACATAATAAAAGTATTCT [XGTACX_site1117]	8.77 ± 0.37
AACTGCAAAAAAAGACGTACAAATTATTAATTGCAA [XGTACX_site8929]	8.88 ± 0.54
TATTTATTTATTTAGTGTACATTTATATTTGTTCAT [XGTACX_site7575]	8.96 ± 0.47
TTCTTTTTTTTTAAAACAAACAAACAAACAAACAAA [CACACA_negctrl_site832]	8.12 ± 0.38
TTAATCTTTCCTACATGTACACACAGAAAAAAAAAA [XGTACX_site5213]	8.69 ± 0.36
TATCCATATTTGTTCACACACACACCCATTTATATA [CACACA_site3571]	9.69 ± 0.35
ATTTTTATGTTGAAAAGTACTTGAATCCCATGTAAC [XGTACX_site4453]	8.65 ± 0.36
ATACAAAATCTAATTTGTACACAATGTTTGATTTTT [XGTACX_site5438]	8.79 ± 0.39

Sequence	gcPBM binding intensity (ln)
AATATAAATAAAAAATTGATTTCTTTAAAAAGGTAT [CACACA_negctrl_site1038]	8.55 ± 0.47
TTGTTCTTTCAAATTATACACACCAAAAAAAAAAAA [CACACA_site3070]	8.44 ± 0.43
TACAAATGAGAAATATGTACATAAAAAAAAAAAAAT [XGTACX_site801]	8.99 ± 0.61
TAATCATAAAAAAATACACACATATATAATATATAT [CACACA_site1983]	8.97 ± 0.35
AAATATTACTACACTACATGCAGTTTTAGGTACACT [TGCATGCA_site42]	8.97 ± 0.4
AAAAACAAAATATAATGTACACAATATATGTATATA [XGTACX_site2301]	8.9 ± 0.61
AATAAACATAAATACACACACAAAAAAAAAAACATA [CACACA_site4396]	9.64 ± 0.33
TTTTTTTTTTTTTGATGTACTAAAAAAAATGAGCCT [XGTACX_site8535]	8.21 ± 0.4
GATATTAAAATATGTAGTACACATATTATATCATAT [XGTACX_site4167]	8.83 ± 0.27
TTAAAAATTATGGATACACACATATATATATATATT [CACACA_site2383]	8.96 ± 0.35
ATAGTTCCTTTTAATACACACAAAAAAAAAAACATG [CACACA_site3415]	8.77 ± 0.38
TATAGGTAAATGGACACACACATATTTATATTTATA [CACACA_site7683]	9.23 ± 0.42
TGTAGTCTGGAGAAGAGTACATAGTATCTGGTAACA [XGTACX_site4944]	8.71 ± 0.62
TTATTAGGTGTATAATGTACATATAATATATATATA [XGTACX_site3398]	8.8 ± 0.47
TAATGTTTTTATATCACACACAAATATTAAATGATT [CACACA_site543]	8.95 ± 0.4
TATAATATAAGGATCACACACAAACAGACATATATA [CACACA_site557]	9.49 ± 0.37
ATAGAAGCATCACACTGTACATGGATGAACAGAAAA [XGTACX_site7311]	9.1 ± 0.48
ATATATATAATGTGAAGTACATTTTGTTTACATATT [XGTACX_site8405]	8.79 ± 0.44
TATATATATACATACATACACACATATATATATATA [CACACA_site4109]	9.535 ± 0.064
ATAATTTCTTTTACATGTACAAAATTTGCTTATATG [XGTACX_site5388]	8.93 ± 0.46
GGATTATTTATAGGAGTGCATACATATATATATATA [GTGCAC_site9454]	9.61 ± 0.45
TTTATTAAATAATCTCTTTTTATTACATAATAATAA [XGTACX_negctrl_site382]	8.1 ± 0.45
